Experimental data as given in article PMC12136788.
Some of the results follow.

T1: UNK ZnF1-3 (human, UniProt Q9C0B0 31-174)
T1 sequence: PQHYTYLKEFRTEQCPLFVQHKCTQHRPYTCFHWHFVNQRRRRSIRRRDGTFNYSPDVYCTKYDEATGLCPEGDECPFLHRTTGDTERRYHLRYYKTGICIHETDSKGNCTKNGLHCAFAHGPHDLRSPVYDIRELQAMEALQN

B1: chr12:73313434:73313435:-_ENSMUSG00000021087_ENSMUST00000021497|mus_hu|motif|central (ssRNA)
RNA: GGGAGUUCUACAGUCCGACGAUCAAAUAUCCUAAGAGUACAAGGAACAGCCUAAAAACAGCUGUUUUAAGGUUUGUCUCGGAGAUUAUGGUACUGGAGGGAGGGGGGAAAGACAAUCAAUUUGCAGUAAUGAGUAAGAAGAGACAACAGAGGAUUGAGCAUCA
B2: chr1:225611761:225611762:-_ENSG00000143815_ENST00000272163|hu_mus|hu_hu_hu_mus_True|18_88 (ssRNA)
RNA: GGGAGUUCUACAGUCCGACGAUCCCAGGCCAUCGGCCUCUGACCACUUCACCAUCGACAAACUUCCUACUUGGCAUUUUCUAAAAUUAGUCUGGCCGCGCUCCGGCGGGAACUCCAGACGGCUCCCGACAGUCACCAGCAGCCCAACAGAGGAUUGAGCAUCA
B3: chr19:16212804:16212805:+_ENSG00000167460_ENST00000300933|hu_mus|hu_hu_hu_mus_False|78_78 (ssRNA)
RNA: GGGAGUUCUACAGUCCGACGAUCAACAAUUCUGGAGUGAAGGAAAGAUGUAACAUGCAAUUAAUUAAAAGCUCAGUCAGAAGGCACAUGGGCAACAAUGAUCACCCCAGCAUUCUCGCUUGGAAUGCUUAAAGACAAUCUGUUCAACAGAGGAUUGAGCAUCA
B4: chr2:131764077:131764078:+_ENSMUSG00000079037_ENSMUST00000091288|mus_mus|motif|central (ssRNA)
RNA: GGGAGUUCUACAGUCCGACGAUCAUACAUGCAAAGUUACAAAUAUAGAAAACGUGAAGUACAUGCAGAUUCAAAGACCAGCGGGGGGUCUGCUUUGGAAUCCUACGGAACUGAGUGCACGCUGAAAGCCCAAGGGUCACACGGCAACAGAGGAUUGAGCAUCA
B5: chr19:10626314:10626315:-_ENSMUSG00000024667_ENSMUST00000059582|mus_hu|FALSE|FALSE (ssRNA)
RNA: GGGAGUUCUACAGUCCGACGAUCCAUACUGGAGAAAGCAGCCAAGGUGAGCACCUCAAGUAAAAGCUCUGAGCCACAGAAGAAGAGCAAGAUGCCAUUCAUGAUGGCUUCCAGGCGGAGUACGUAGGUCUGCAGCAGCAGGUACAACAGAGGAUUGAGCAUCA
B6: 94545830_94545950_330_CDS_ENSG00000089737_ENST00000330836|human|control|control (ssRNA)
RNA: GGGAGUUCUACAGUCCGACGAUCCUCCUCUUCUUCUGAAACAGCUUGUGCCUUUCUCUUGGGUGCUUCCUUUGAGAAGAGACUGGAGGGAUUCUUGGCAGGGGAGACCAACUGGUAAUCUGUCAAUUCCUCAAAGCACACCAACAACAGAGGAUUGAGCAUCA
B7: chr3:39104626:39104627:+_ENSG00000114742_ENST00000302313|hu_hu|motif|central (ssRNA)
RNA: GGGAGUUCUACAGUCCGACGAUCGUGCUGAUUGACACUCCAUAUUCUUAUGAUAGAGUCUCGACCGGCUGUGAAAAGUCGGUUUAGUGCUGGAUCCAGCUGCAGAGCAUUGACUCCAUUUCGGUUGUACUUCUCCACUUCAUCCAACAGAGGAUUGAGCAUCA
B8: chr9:82820052:82820053:-_ENSMUSG00000032253_ENSMUST00000034787|mus_mus|motif|central (ssRNA)
RNA: GGGAGUUCUACAGUCCGACGAUCACCAUGUCCUUGUCCUUCAAUCAUAUUGAAAUAAGAUCGAACUUUGACUCCUCUUGCGGGAUCCCACACUAUCACAUUUCCAUCAUGACCAGCAGAGAAGAGAACUCUAGGAUCAAAUGGCAACAGAGGAUUGAGCAUCA
B9: chr5:180277019:180277020:-_ENSG00000196670_ENST00000512132|hu_mus|FALSE|FALSE (ssRNA)
RNA: GGGAGUUCUACAGUCCGACGAUCAUGAAUCCUUUUAUGUUGUUCAAGGGCAGAACUGUAGUUGAAAGAUUUCUCACAAUAGCUGCAUUUAUAGGGCUUCUCCCCCAUGUGGAUUCCUUUGUGAUUUUUAAGGCUUGAGCGUGACAACAGAGGAUUGAGCAUCA
B10: chr12:39763582:39763583:-_ENSG00000139116_ENST00000544797|hu_mus|hu_hu_hu_mus_False|58_78 (ssRNA)
RNA: GGGAGUUCUACAGUCCGACGAUCCUCUAGGAACUGGGCAUUCACUUUGAAUUCAGGAGCAGGAAGCCCGUUUUUAAUUGCUAUGUGCUUUUUCUCAUCAAUACUCUUGAACAGGUGUCUAACAGCACGAGAGAUGAUGCCCUGCAACAGAGGAUUGAGCAUCA
B11: 96986530_96991664_427_3pUTR_ENSG00000090060_ENST00000216277|human|control|control (ssRNA)
RNA: GGGAGUUCUACAGUCCGACGAUCUACAGAUUGUGGAAGAUUCUUGCUUUCACUGAUUUCUCGUAUCCACUCUUUUACCAGGUUAUUUAGUUUUCCCAAAAUUAAAAUCCUGCGCUGCAGUUCCUCUUCCUCUUCAAAAACCCCCAACAGAGGAUUGAGCAUCA
B12: chr18:9315019:9315020:-_ENSMUSG00000024286_ENSMUST00000053917|mus_mus|FALSE|FALSE (ssRNA)
RNA: GGGAGUUCUACAGUCCGACGAUCCAUACAAUUCUAAACUUUUCCACGCUCACACAGGAGGAGUAUAUGAUAAAGCAAAUGCUAGAAUUUAUCUCAAACAAGGAAAACCUCACAAACCUCGGUCACCGCAACCUAAGAUGGGCACAACAGAGGAUUGAGCAUCA
B13: chr18:3457883:3457884:+_ENSG00000177426_ENST00000400167|hu_hu|motif|central (ssRNA)
RNA: GGGAGUUCUACAGUCCGACGAUCGGGUUAAGCUGUAAGUUUUGCCUGAAGCUCCAUCUCUGCAGCCCGUUUGAGUGCAACAUCCACGGGAAGCUGAAAUCCACUGAAGUCCUGGUUGAGGUCCGGUGGAGUAGGGGGAGGAGUCAACAGAGGAUUGAGCAUCA
B14: chr1:163112212:163112213:-_ENSG00000143248_ENST00000313961|hu_hu|hu_hu_hu_mus_False|68_88 (ssRNA)
RNA: GGGAGUUCUACAGUCCGACGAUCUUUUAUUAUCAGUAAGAGUGAGUCACAUAGUACGCAAAGUAUUGAAUACAAAAAUCAGGAAACAAACACUAUUGGUCCAGAAUUUAAAACUUUAUGAGCGAAGUGCUGGCACAGGACUUACAACAGAGGAUUGAGCAUCA
B15: chr5:37680062:37680063:+_ENSMUSG00000029121_ENSMUST00000031004|mus_hu|mus_mus_mus_hu_False|1_38 (ssRNA)
RNA: GGGAGUUCUACAGUCCGACGAUCUUUGGGUGUAGCUGGUACCUCGUACACAGGACCGUCAUACAUGCCCCUGGAAACCCCUUGCAAUCCAAAAACCUUGCUUCUGAUUUUGACGCGCUGGUACAGGUGCUCCGGGAAUGGCUUCAACAGAGGAUUGAGCAUCA
B16: chr1:39333270:39333271:-_ENSG00000214114_ENST00000397572|hu_mus|FALSE|FALSE (ssRNA)
RNA: GGGAGUUCUACAGUCCGACGAUCUUCUGCCAAUUCUAGGCGAAGCAGCUCUAUUUCUGGGUUUUCCGGGGUAGCAGCUCCUAAGUGAUGCUUUAAAAAAUCCAGAGCACUGGUGGGCUUCUCUGGUUCUUCAUAUAAGGCUACCAACAGAGGAUUGAGCAUCA
B17: chr1:6239374:6239375:+_ENSMUSG00000025907_ENSMUST00000027040|mus_mus|FALSE|FALSE (ssRNA)
RNA: GGGAGUUCUACAGUCCGACGAUCCUCCUGUGUGUGCCUGAUGUGCAGUGUGUCCUCUAAUUCCUUCAGGUGAUUUUGUUCUAAGCACUGAAAUUCAGCUCUCAAUGACUCGAUUUUUUCAUCAUGCAGCUUUUUCAGGUCUUCCAACAGAGGAUUGAGCAUCA
B18: chr1:39494564:39494565:+_ENSG00000168653_ENST00000372967|hu_hu|hu_hu_hu_mus_True|28_98 (ssRNA)
RNA: GGGAGUUCUACAGUCCGACGAUCAUGCAUUCGCCUCAUCGUUUUCUACCGAAGCAAGCACUCUUCGAAGUCAUCGAACUCUAUCUUGCACUCCUUUUUCGCCCGGGUAUAACCGAUCCCGUGUGCACACUCUAUCCACUCUUUCAACAGAGGAUUGAGCAUCA
B19: chr17:66519878:66519879:+_ENSG00000108946_ENST00000358598|hu_mus|FALSE|FALSE (ssRNA)
RNA: GGGAGUUCUACAGUCCGACGAUCACUUCUCUCGUUAUCAUCAAGGUGUGAAAACAGCACAUUCUUUUCGAUGGCCUUGGCUAAAGCAGCCAUUGUCUUAUAAUCUUUUGGAAUAACCUUUCUAACGUAGGAGGCAGCAUCCUCCAACAGAGGAUUGAGCAUCA
B20: chrX:69798090:69798091:-_ENSMUSG00000031343_ENSMUST00000055966|mus_mus|mus_mus_mus_hu_False|28_108 (ssRNA)
RNA: GGGAGUUCUACAGUCCGACGAUCAAGUCCCCAGGUUCUUGUCGUCUUGAUUCCCCUUGACCAGUGGUUCCAGGGAGAAUAUUAAUCAGGAAAAGAAUCCCAAGGCUGGUCACAUAACAGUGACUUGUUUGUGUGAUUAUCAUCCAACAGAGGAUUGAGCAUCA
B21: chr16:32092491:32092492:-_ENSMUSG00000023791_ENSMUST00000096109|mus_hu|FALSE|FALSE (ssRNA)
RNA: GGGAGUUCUACAGUCCGACGAUCUAUGUUUCUCUCUCGUAAUGAAGCCAACUCAUACGGAUCCACAUAAAGUCCUGCAGGAAUGUCCUGUUUAAUUAAGAGACGGCAGGUGUGCAAGUCCUCAAUGCUUUCCCCAAACUUCACCAACAGAGGAUUGAGCAUCA
B22: chr7:141450121:141450122:+_ENSG00000106028_ENST00000265304|hu_mus|hu_hu_hu_mus_True|38_38 (ssRNA)
RNA: GGGAGUUCUACAGUCCGACGAUCUCAUCCGUUCUAUGCCUUUUCUUUUGUCUGGUCACUCAGAAAUAUAAUGUUAUCAGCUAUGAUUGUUGUUGCUUGUCGCCUCACAUUGUUUUUAUCCAUGUACUCGCCAUAGUCCACUUUCAACAGAGGAUUGAGCAUCA

Target: T1, UNK ZnF1-3
Assay: nsRBNS (natural sequence RNA bind-n-seq); RBNS binding buffer (assumed for nsRBNS): 25 mM Tris pH 7.5, 150 mM KCl, 3 mM MgCl2, 0.01% Triton X-100, 500 ug/ml BSA, 20 U/ml SUPERase-In, 4 C; UNK is unkempt and MSI1 is Musashi-1; names of the RNAs are library labels; protein concentration not given here; high values mean tight binding

Row | Binder | binding signal
1 | B1 | 2.21 enrichment R
2 | B2 | 1.21 enrichment R
3 | B3 | 1.31 enrichment R
4 | B4 | 1.53 enrichment R
5 | B5 | 2.3 enrichment R
6 | B6 | 0.78 enrichment R
7 | B7 | 0.704 enrichment R
8 | B8 | 1.1 enrichment R
9 | B9 | 0.938 enrichment R
10 | B10 | 1.27 enrichment R
11 | B11 | 0.825 enrichment R
12 | B12 | 1.66 enrichment R
13 | B13 | 1.3 enrichment R
14 | B14 | 1.56 enrichment R
15 | B15 | 0.815 enrichment R
16 | B16 | 0.891 enrichment R
17 | B17 | 0.498 enrichment R
18 | B18 | 0.694 enrichment R
19 | B19 | 1 enrichment R
20 | B20 | 0.605 enrichment R
21 | B21 | 1.13 enrichment R
22 | B22 | 0.421 enrichment R
